The values below come from PubChem BioAssay AID488969 (Vanderbilt High Throughput Screening Facility, 2010).

In all, about 110,000 compounds were measured (“z-score”: median about -0.1, highest 2% from about 2 on). Some of the results follow. The source made the active and inactive calls.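 Rule for the calls: active = z-score in the third read window above 3 or below -3; inactive = the rest.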

This assay has as its target Metabotropic glutamate receptor 8 (Rattus norvegicus) (UniProt P70579). Nature of the assay: mGluR8 Gi/Go-coupled signaling modulation – cell-based, rat, thallium flux, HTS, primary screen (AID 488969). The settings on record: HEK293 rat mGluR8, GIRK (G protein-gated inwardly rectifying potassium channel) thallium flux, FluoZin2; at 10 µM; stronger effect = higher value; submaximal glutamate (EC20) added with thallium.
Chain of UniProt P70579 (P70579 whole entry, looked up): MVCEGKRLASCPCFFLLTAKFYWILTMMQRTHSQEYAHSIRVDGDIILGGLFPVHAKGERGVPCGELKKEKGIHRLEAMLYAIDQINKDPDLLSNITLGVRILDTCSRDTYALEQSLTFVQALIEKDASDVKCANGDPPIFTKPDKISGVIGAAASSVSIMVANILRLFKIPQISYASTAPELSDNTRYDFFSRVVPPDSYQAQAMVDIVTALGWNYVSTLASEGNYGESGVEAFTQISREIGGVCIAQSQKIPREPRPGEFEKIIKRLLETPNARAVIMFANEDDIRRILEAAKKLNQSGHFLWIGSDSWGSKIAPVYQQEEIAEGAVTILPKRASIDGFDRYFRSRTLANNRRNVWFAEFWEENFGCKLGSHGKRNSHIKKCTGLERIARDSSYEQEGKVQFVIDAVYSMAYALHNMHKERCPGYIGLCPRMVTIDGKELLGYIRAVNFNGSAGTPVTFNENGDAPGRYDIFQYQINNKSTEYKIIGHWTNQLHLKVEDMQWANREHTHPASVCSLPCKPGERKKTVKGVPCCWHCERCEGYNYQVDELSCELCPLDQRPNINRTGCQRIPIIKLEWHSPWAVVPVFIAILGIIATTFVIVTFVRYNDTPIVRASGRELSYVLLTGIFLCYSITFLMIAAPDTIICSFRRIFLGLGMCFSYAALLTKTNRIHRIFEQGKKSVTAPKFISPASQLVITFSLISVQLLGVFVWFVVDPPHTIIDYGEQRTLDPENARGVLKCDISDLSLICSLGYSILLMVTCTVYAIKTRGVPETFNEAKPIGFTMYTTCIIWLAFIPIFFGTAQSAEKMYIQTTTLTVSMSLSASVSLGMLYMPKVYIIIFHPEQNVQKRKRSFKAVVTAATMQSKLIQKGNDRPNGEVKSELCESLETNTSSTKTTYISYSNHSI
As for `Cc1nn2c(c1-c1ccccc1)NC1=C(C(=O)CCC1)C2c1ccccc1` (stereo not drawn), the z-score was -0.188.

On to `O=C(NC1CCS(=O)(=O)C1)Oc1ccccc1` (stereo not drawn), for which the z-score was -0.0372.

`Cn1c(N)c(C#N)c2c(c1=S)CSC(C)(C)C2` registered a z-score of -0.0399.

`CCc1ccccc1N1CC(C(=O)O)CC1=O` (stereo not drawn) showed a z-score of 0.153.

`O=C(Nc1ccc(Oc2ccc3c(c2)C(=O)N(c2ccc(O)cc2)C3=O)cc1)c1cccs1` displayed a z-score of 0.214.

Molecule `Cc1c(C(=O)NC(=S)Nc2ccc(NC(=O)c3cccs3)cc2)cccc1[N+](=O)[O-]` showed a z-score of 0.0683.

`Cc1cc(C)cc(OCC(=O)NNC(=O)CCC(=O)NCc2ccccc2)c1`: the z-score came to 0.00431.

Molecule `CCOc1ccc(C(=O)O/N=C(\N)c2ccc([N+](=O)[O-])cc2)cc1OCC` gave a z-score of 0.434.

Molecule `Cc1cccc(NC(=O)COc2cccc3c2CCN(Cc2ccccc2)C3=O)c1C` yielded a z-score of -0.27.

Molecule `CC(Oc1cccc2c1OC(C)(C)C2)C(=O)O` (stereo not drawn) yielded a z-score of 0.766.

With `Cc1ccc(S(=O)(=O)NCCC(=O)O)cc1`, the z-score was -0.647.

For the molecule `Cc1c(Cl)cccc1NC(=O)CNC(=O)c1ccc(F)cc1`, the z-score is 0.862.

With `Cc1ccc2nsnc2c1NC(=O)c1ccc2c(c1)OCCO2`, the z-score was -0.679.

`Oc1ccc(Cl)cc1-c1cc(-c2cccc(Br)c2)n[nH]1` displayed a z-score of -0.241.

The molecule `CCS(=O)(=O)CCSC(=N)N` registered a z-score of -0.029.

For `COc1cc(NC(=O)COC(=O)Cc2ccc(-c3ccccc3)cc2)cc(OC)c1`, the z-score was -0.324.

The molecule `COc1ccc2nc(/N=C(\N)NC(=O)Nc3ccccc3)nc(C)c2c1` showed a z-score of -0.147.

On to `CCOC(=O)N1CCN(S(=O)(=O)c2ccc(Br)s2)CC1`, for which the z-score was -0.217.

Take `COc1ccc(C(=O)COC(=O)Cn2nnc3ccccc32)cc1Br`: the z-score is -0.984.

For `Cc1c(C(=O)c2ccc(Cl)cc2Cl)cnc2cc3c(cc12)OCO3`, the z-score is -0.247.

On to `O=C(CN1C(=O)COc2ccccc21)N1CCc2ccccc21`, for which the z-score was 0.0285.

As for `c1ccc(-c2csc(-n3cnnn3)n2)cc1`, the z-score is -0.379.

Take `O=c1c2ccccc2c2ccccc2c(=O)n1CC1CCCO1` (stereo not drawn): the z-score is -0.00913.

As for `O=C(O)CC1C(=O)NCCN1CCCc1ccccc1` (stereo not drawn), the z-score turned out to be 0.0778.

`Cc1ccc(-n2ncc(C(=O)N3CCc4ccccc4C3)c2NC(=O)c2ccco2)cc1C` had a z-score of -0.674.

The molecule `CCOc1ccc(-c2nnn(CC(=O)NCc3ccco3)n2)cc1` returned a z-score of 0.0502.

`COc1cc(Cn2c(=O)oc3ccc(C)cc32)ccc1OC(C)C` gave a z-score of -0.204.

On to `CN(c1ccc(OCC(=O)OCC(=O)Nc2ccc(Br)cc2)cc1)S(=O)(=O)c1cccs1`, for which the z-score was -0.406.

With `COc1cc(CNCc2ccccn2)ccc1OCc1ccc(Cl)cc1`, the z-score is 0.427.

In turn, `CCSc1nnc(NC(=O)CSc2nc(CC)nc3c2c(=O)n(C)c(=O)n3C)s1` had a z-score of -0.256.

In turn, `O=[N+]([O-])c1ccc(N2CCCCCC2)c([N+](=O)[O-])c1` came in with a z-score of -0.000557.

Take `CCN(CC)c1ccc(/C=N/N(c2ccccc2)c2ccccc2)c(O)c1`: the z-score stood at 0.0821.

As for `O=C(O)/C=C/C(=O)Nc1ccc(F)cc1F`, the z-score was -0.309.

`O=C(NCc1ccccc1)C(c1ccc(F)cc1)N(Cc1ccc2c(c1)OCO2)C(=O)Cn1nnc(-c2cccs2)n1` (stereo not drawn) yielded a z-score of -0.0154.

`COc1ccc(C2(CNC(=O)c3cc([N+](=O)[O-])cc([N+](=O)[O-])c3)CCCC2)cc1OC` yielded a z-score of -0.226.

As to `NC(=O)CSc1nnc(-c2cnccn2)n1-c1ccccc1`, the z-score amounted to 0.0631.

Take `Cc1cc(OCC(=O)Nc2ccncc2)c(C)cc1Br`: the z-score is -0.215.

Regarding `CC1CN(C(=O)Cn2c(C(F)(F)F)nc3ccccc32)CC(C)O1` (stereo not drawn), the z-score is -0.537.

Consider `Cc1ccc(-n2c(=O)c(C#N)cc3c(=O)n4ccccc4nc32)cc1`, for which the z-score was -0.274.

In the case of `COc1ccc(CNC(=O)/C=C/c2ccc(OCCCF)cc2)cc1`, the z-score was found to be 0.0944.

In turn, `CSC1=C(C#N)C(c2ccccc2Cl)C(C(C)=O)=C(C)N1` (stereo not drawn) registered a z-score of -1.68.

`Cc1cc(C)n(-c2nc3ccccc3[nH]c2=O)n1`: the z-score is -0.181.

The molecule `Cc1ccc(-n2c(C)cc(C=C(C#N)C#N)c2C)cc1` gave a z-score of -0.127.

For `COc1cc(S(=O)(=O)N(Cc2ccco2)C2CCCC2)ccc1-n1cnnn1`, the z-score was found to be 0.94.

For `COc1ccc(OC)c(NC(=O)C23CCC(C)(C(=O)C2)C3(C)C)c1` (stereo not drawn), the z-score was -0.0351.

In the case of `S=C(Nc1ccc2nsnc2c1)NC1CCCCC1`, the z-score worked out at 1.94.

With `COC(=O)Cn1ncc2c3ccccc3n(C)c2c1=O`, the z-score came out at 0.358.

In the case of `CC1(C)CC(O)C(CCC(O)c2ccccc2)C(C)(C)N1` (stereo not drawn), the z-score was 0.702.

For `O=C(CCN1C(=O)/C(=C/C=C/c2ccccc2)SC1=S)Nc1cccnc1`, the z-score amounted to 0.578.

As for `CC(C#N)Sc1ncnc2sc3c(c12)CCC3` (stereo not drawn), the z-score stood at 0.00954.

Molecule `COC(=O)c1sccc1NC(=O)c1c(-c2ccccc2)noc1C` displayed a z-score of -0.0888.

`COc1ccc(OC)c(S(=O)(=O)NCc2cn3cccc(C)c3n2)c1` displayed a z-score of 0.746.

Take `CCCOC(=O)c1c(NC(=O)c2cnn3c2NC(c2ccccc2)CC3C(F)(F)F)sc2c1CCCC2` (stereo not drawn): the z-score is -0.0376.

As for `CCCCSCCCNC(=O)CS(=O)Cc1nc(-c2cccc(C)c2)oc1C` (stereo not drawn), the z-score is -1.3.

On to `Cc1ccsc1C(=O)Nc1nnc(-c2ccco2)o1`, for which the z-score was determined as 0.832.

The molecule `CCOc1cccc(NCc2cc3c(C(C)(C)C)nn(-c4ccccc4)c3[nH]c2=O)c1` had a z-score of -0.104.

As to `CC(=O)Nc1ccc(S(=O)(=O)CCC#N)cc1`, the z-score was 0.135.

`Cc1cc(CN2C(=O)c3ccccc3C2=O)cc(N2CCOCC2)c1` gave a z-score of -0.382.

With `Nc1nonc1C(=O)OCC(=O)c1ccc(Cl)cc1`, the z-score was found to be 0.669.

`COc1ccc(/C=N/NC(=O)c2cccc(Br)c2)cc1Cn1cc(Cl)cn1` showed a z-score of 0.178.

Consider `CC(=O)Nc1ccc(NC(=O)c2ccccc2C)cc1`, for which the z-score was -0.192.

`c1ccc(SCc2nc(-c3cccnc3)no2)cc1` registered a z-score of 0.56.

Molecule `CC(=O)Nc1ccc(N/C(C)=C/C(=O)c2cccnc2)cc1` registered a z-score of -0.0636.

`O=C(O)c1cccc(NC(=O)C23CC4CC(C2)CC(n2cnc(Cl)n2)(C4)C3)c1` displayed a z-score of -0.548.

In the case of `CCOc1ccccc1N1CSC2=C(C#N)C(c3c(OC)ccc4ccccc34)CC(=O)N2C1` (stereo not drawn), the z-score is -0.15.

For `COc1ccc(-c2nnc3sc(-c4cccs4)nn23)cc1OC`, the z-score was -0.293.

For `CC(C)CN1C(=O)c2ccc(NC(=O)c3cccs3)cc2C1=O`, the z-score was -0.259.

For the molecule `CC(C)(C)OC(=O)NCC12C=CC(O1)C1C(=O)N(Cc3ccccc3)C(=O)C12` (stereo not drawn), the z-score was -0.127.

For `CCC(C(=O)OC)n1cnc2c(nnn2-c2ccc(OC)cc2)c1=O` (stereo not drawn), the z-score is -0.912.

The molecule `CCCCN1Cc2cc(C(=O)c3cc(OC)ccc3O)cnc2NC1=O` had a z-score of -0.207.

`Cc1ccc2c(c1)C=CC(C)(C)S2(=O)=O` yielded a z-score of 0.142.

As to `COc1ccccc1CNC(=O)C(C)NS(=O)(=O)c1ccc(C)cc1` (stereo not drawn), the z-score was determined as 0.164.

As to `O=C(Nc1ccccc1NC(=O)c1c(F)c(F)c(F)c(F)c1F)c1c(F)c(F)c(F)c(F)c1F`, the z-score was -0.051.

In turn, `COc1ccc(C(=O)CSc2nc(N)nc(SC)c2C#N)cc1` yielded a z-score of -0.106.

`Cc1ccc(Nc2ncccc2C(=O)NCc2cccs2)c(C)c1` came in with a z-score of -0.127.

Turning to `COCCN(CC(=O)NC1CCCCC1)C(=O)c1csnn1`, the z-score is -0.0901.

The molecule `O=C(Nc1ccc(NC(=O)c2ccco2)cc1)c1cnccn1` yielded a z-score of 0.103.

In turn, `Cc1ccc(NC(=O)Cn2nc(C)c3ccccc3c2=O)cc1` had a z-score of -0.332.

`Cc1ccc(C(=O)C(C)OC(=O)c2ccccc2[N+](=O)[O-])cc1` (stereo not drawn) came in with a z-score of -0.0247.

Turning to `COc1ccc2nc(NC(=O)CSc3nc4cccnc4n3C)sc2c1`, the z-score was -0.89.

For `COc1ccc(S(=O)(=O)Nc2ccc(NC(C)=O)cc2)cc1OC`, the z-score was found to be 0.15.

Molecule `COc1cccc(NC(=O)Cn2cc3c(n2)CCCCC3)c1` gave a z-score of 2.89.

With `CCOC(=O)C(C)Sc1nnc(NC(=O)c2ccc(C)c([N+](=O)[O-])c2)s1` (stereo not drawn), the z-score is -0.109.

The molecule `COc1ccc(C(CNC(=O)c2ccc(-n3cnnn3)cc2)N2CCOCC2)cc1` (stereo not drawn) had a z-score of 0.602.

For the molecule `CN(CCNC(=O)C1CCN(S(=O)(=O)c2cnc[nH]2)CC1)Cc1ccccc1`, the z-score stood at 0.122.

`Cc1cccc(NC(=O)CCc2c(C)nc3ncnn3c2C)n1` registered a z-score of 0.666.

Take `CCOC(=O)c1cnc2c(C(F)(F)F)cccc2c1N1CCOCC1`: the z-score is -0.0502.

`COC(=O)CSc1nnc(-c2sc3ccccc3c2Cl)o1` showed a z-score of 0.302.

As to `COc1ccc(-c2ccc(-c3noc(-c4cccs4)n3)c(OC)n2)cc1`, the z-score is -0.0896.

Take `CNCCOc1ccccc1-c1ccccc1`: the z-score was -0.398.

Turning to `Cc1cccc(-n2ncc3c(NCCc4ccc(S(N)(=O)=O)cc4)ncnc32)c1`, the z-score was active: 8.89.

As for `Cc1nn(-c2ccccc2)c(Cl)c1/C=C/C(=O)c1ccc(O)cc1`, the z-score is 0.0167.

Molecule `NC(=O)c1ccccc1OCC(=O)NC12CC3CC(CC(C3)C1)C2` had a z-score of -0.0638.

In turn, `CCCCOC(=O)c1ccc(NC(=O)C2CCCO2)cc1` (stereo not drawn) gave a z-score of -0.0259.

For `O=C(c1cccc(S(=O)(=O)N2CCCC2)c1)c1nnc(-c2ccncc2)o1`, the z-score was determined as 0.87.

`COC(=O)NNC(=O)C(C)Oc1ccc(Cl)cc1Cl` (stereo not drawn) displayed a z-score of 0.139.

Take `Cc1ccc(Cl)c(NC(=S)N(CCCN2CCOCC2)Cc2ccco2)c1`: the z-score was -0.227.

Consider `Cc1ccc(C(=O)N/C(=C\c2cccs2)C(=O)NCCCn2ccnc2)cc1C`, for which the z-score is 0.219.

In turn, `COc1ccc(-c2cnc3c(c2)CCC3(C#N)C#N)cc1` gave a z-score of 0.416.

The molecule `CCOC(=O)C1CCCN(Cc2cccc(Cl)c2)C1` (stereo not drawn) registered a z-score of 0.258.

Molecule `Cc1ccc(C)c(CS(=O)(=O)c2cn(CC(=O)N3CCCCC3)c3ccccc23)c1` came in with a z-score of 0.152.

Molecule `COc1ccc(NC(=O)c2oc3ccccc3c2NC(=O)c2ccco2)c(OC)c1` came in with a z-score of -0.246.

On to `CCCCOc1ccc(-c2nnn(C(C)(C)C(=O)OC)n2)cc1`, for which the z-score was -0.0425.

The molecule `Cc1ccc(NC(=O)CN(C)S(=O)(=O)c2cccc3nsnc23)cc1Cl` gave a z-score of 0.0103.

The molecule `CCN(CC)C(=O)C1=C(C)Nc2nc3ccccc3n2C1c1cccc(OC)c1` (stereo not drawn) gave a z-score of -0.275.

Take `COc1ccc([N+](=O)[O-])cc1NC(=O)Cn1ccsc1=N`: the z-score was -2.33.

As to `CCCC(=O)Nc1ccc(C(=O)NNC(=O)COc2ccc(Br)c(C)c2)cc1`, the z-score is -0.127.

`COC(=O)c1sccc1NC(=O)c1cccnc1` showed a z-score of 0.00083.

On to `CN(C)c1cc[nH]c(=O)c1C#N`, for which the z-score was -0.277.

`Cn1nnnc1SCC(=O)Nc1ccccc1N1CCCCC1` returned a z-score of 0.626.

Molecule `O=C(c1ccc2c(c1)OCO2)N1CCc2ccccc2C1` came in with a z-score of -0.016.

As to `Cc1cc(-c2nnc(SCc3cccnc3)o2)no1`, the z-score was -0.0905.

`Cc1ccc2nc(-c3ccc(NS(C)(=O)=O)cc3)cc(-c3ccccc3)c2c1` had a z-score of -0.184.
